Measurements taken from paper PMC4336329 (PLoS ONE, 2015).
Screen size: about 310,000 compounds; about 14,000 (4.5%) showed an effect of 50% or more. Effects have a minus sign here. This is one part of the list.

Target: human ether-à-go-go-related gene (hERG) potassium channel (human, UniProt Q12809)
Experiment: primary screen, population patch clamp on CHO cells stably expressing hERG
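Further: peak tail current of the secondary pulse compared with the same well before compound.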

Chain of human ether-à-go-go-related gene (hERG) potassium channel (Q12809 whole entry, looked up): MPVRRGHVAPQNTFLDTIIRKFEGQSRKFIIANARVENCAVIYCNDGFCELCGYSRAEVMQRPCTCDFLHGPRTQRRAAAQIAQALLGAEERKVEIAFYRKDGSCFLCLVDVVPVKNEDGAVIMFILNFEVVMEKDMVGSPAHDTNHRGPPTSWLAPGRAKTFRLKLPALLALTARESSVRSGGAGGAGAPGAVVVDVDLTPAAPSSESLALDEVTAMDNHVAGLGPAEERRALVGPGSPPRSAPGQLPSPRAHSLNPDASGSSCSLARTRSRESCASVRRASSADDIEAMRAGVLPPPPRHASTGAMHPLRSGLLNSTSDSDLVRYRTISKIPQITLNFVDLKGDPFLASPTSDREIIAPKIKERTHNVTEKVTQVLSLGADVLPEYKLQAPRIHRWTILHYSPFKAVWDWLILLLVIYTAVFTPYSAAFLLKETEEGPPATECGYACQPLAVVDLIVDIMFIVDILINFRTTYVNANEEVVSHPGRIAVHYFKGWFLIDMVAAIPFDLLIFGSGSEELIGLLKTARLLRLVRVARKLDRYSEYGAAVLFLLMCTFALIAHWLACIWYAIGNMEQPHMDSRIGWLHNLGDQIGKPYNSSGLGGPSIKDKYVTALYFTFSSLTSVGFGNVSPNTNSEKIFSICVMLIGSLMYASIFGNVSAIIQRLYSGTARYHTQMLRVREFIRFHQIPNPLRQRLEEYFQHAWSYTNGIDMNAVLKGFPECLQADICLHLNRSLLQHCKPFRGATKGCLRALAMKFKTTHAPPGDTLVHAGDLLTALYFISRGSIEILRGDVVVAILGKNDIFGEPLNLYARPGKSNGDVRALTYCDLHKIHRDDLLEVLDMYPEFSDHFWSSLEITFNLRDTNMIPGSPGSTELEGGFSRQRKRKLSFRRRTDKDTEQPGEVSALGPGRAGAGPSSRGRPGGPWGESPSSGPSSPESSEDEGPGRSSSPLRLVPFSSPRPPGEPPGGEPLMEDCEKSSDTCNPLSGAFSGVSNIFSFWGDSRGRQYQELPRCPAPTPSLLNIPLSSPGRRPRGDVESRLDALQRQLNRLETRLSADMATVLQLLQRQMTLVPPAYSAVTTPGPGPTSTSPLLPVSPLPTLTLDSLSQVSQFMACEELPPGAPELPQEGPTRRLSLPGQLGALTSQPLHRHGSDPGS

Compared with CC1(C)NC(=O)N(CC(O)Cn2nnc3ccccc32)C1=O.Cl (centres unmarked), CC(Cc1c[nH]c2ccccc12)NC(N)=O (centres unmarked) is lower in “hERG current change (%, negative = inhibition) at 10uM” value: 3.29% for the first, -11.7% for the second.

Going from CCOc1ccccc1C(=O)Nc1nnc(C(C)C)s1 to COC(=O)Cn1c(C)nc(=O)c(-c2ccccc2)c1C, the “hERG current change (%, negative = inhibition) at 10uM” value rises from -1.92% to 14.9%.

First: Cc1nc(SCc2ccc(F)cc2)n[nH]1
Second: Cc1ccc(-c2csc3n[nH]c(=S)n23)cc1
The “hERG current change (%, negative = inhibition) at 10uM” value of the first is higher: 19.2% for the first, 8.85% for the second.

First: COCCCNC(=S)NNC(=O)c1ccc2c(c1)OCO2
Second: Cn1c(COc2ccccc2)nnc1SCC(=O)Nc1ccc2c(c1)OCO2
The “hERG current change (%, negative = inhibition) at 10uM” value of the first is higher: -8.49% for the first, -12.5% for the second.

Going from CC1CN(/C=C/C(=O)C(F)(F)F)CC(C)O1 (centres unmarked) to C/C=C/C=C/C(=O)N1CC[C@]23c4ccccc4N[C@H]4N(C)c5cccc6c5[C@]42CCN([C@H]6C2OC2(C)C)[C@H]13 (some centres unmarked), the “hERG current change (%, negative = inhibition) at 10uM” value falls from 25.9% to -8.01%.

First: CCOc1ccc(NC(=O)CSc2ncnc3c2sc2ccccc23)cc1
Second: O=C(COc1ccc(Cl)cc1)NCCc1ccccn1
The “hERG current change (%, negative = inhibition) at 10uM” value of the first is lower: 9.4% for the first, 32.5% for the second.

First: COc1ccc([N+](=O)[O-])cc1NC(=O)C1CCCN1S(=O)(=O)c1cccs1 (centres unmarked)
Second: Cc1ccccc1NC(=O)C1CCCN1S(=O)(=O)c1ccc2c(c1)n(C)c(=O)c(=O)n2C (centres unmarked)
The “hERG current change (%, negative = inhibition) at 10uM” value of the first is lower: -18.1% for the first, -8.85% for the second.

Going from Cc1ccc(-n2nc3c(c2NC(=O)C(C)C)CS(=O)(=O)C3)c(C)c1 to O=C(Nc1ccc2c(c1)OCO2)c1ccc2c(c1)S(=O)(=O)c1ccccc1C2=O, the “hERG current change (%, negative = inhibition) at 10uM” value falls from 17.2% to 12.5%.

Compared with Cl.O=C(O)CCN1CCOCC1, Cc1c(/C(O)=C2/C(=O)C(=O)N(CCN3CCOCC3)C2c2cccs2)cnn1-c1ccccc1 (centres unmarked) is lower in “hERG current change (%, negative = inhibition) at 10uM” value: 19.8% for the first, 13.6% for the second.

First: Cc1ccc(S(=O)(=O)CCC(=O)OCC(=O)Nc2cc(S(=O)(=O)N3CCOCC3)ccc2C)cc1
Second: Cc1ccc(S(=O)(=O)N(C)c2ccc(C(=O)NCC(c3cccs3)N3CCOCC3)cc2)cc1 (centres unmarked)
The “hERG current change (%, negative = inhibition) at 10uM” value of the first is lower: -30.2% for the first, 20.9% for the second.

Going from CCCCN(CC)S(=O)(=O)c1ccccc1 to CCN(CC)CCNC(=O)c1ccccc1C(=O)c1ncc[nH]1, the “hERG current change (%, negative = inhibition) at 10uM” value rises from -18.3% to -4.65%.

Going from O=S(=O)(N1CCCCC1)N1CCNCC1 to COc1ccc(S(=O)(=O)N2CCCCC2)cc1C(=O)N1CCCC1, the “hERG current change (%, negative = inhibition) at 10uM” value rises from 6.92% to 15.4%.

First: COc1ccc(OC)c(CN2CCN(C(=O)c3cc4ccccc4cc3O)CC2)c1
Second: COc1ccc2[nH]c(C(=O)O)c(NS(=O)(=O)c3ccc(OC)c(OC)c3)c2c1
The “hERG current change (%, negative = inhibition) at 10uM” value of the first is lower: -7.39% for the first, -1.22% for the second.

First: CCOC(=O)c1c2ccc(OCC(=O)N/N=C/c3ccc(C)cc3)cc2n2ccccc12
Second: COc1cccc(OCC(=O)Nc2ccccc2-c2ccccc2)c1
The “hERG current change (%, negative = inhibition) at 10uM” value of the first is lower: -2.23% for the first, 9.57% for the second.

Compared with O=C(NCCc1cccnc1)c1cc(COc2ccc(F)cc2F)on1, COc1cc(C(=O)NCCc2nc3ccccc3n2C)cc(OC)c1OC is higher in “hERG current change (%, negative = inhibition) at 10uM” value: -20% for the first, -10.8% for the second.

Going from COc1ccc(C(=O)NCCS(=O)(=O)NCCc2ccccc2)cc1 to O=C(O)c1cccc(N/N=C/c2cccc3ccccc23)c1, the “hERG current change (%, negative = inhibition) at 10uM” value rises from -13.2% to 14.4%.

Going from CCOc1cc(/C=C2\SC(=O)N(c3ccc(O)cc3)C2=O)ccc1O to CC(C)OC(=O)c1ccc(NC(=O)c2cccc(-n3cnnn3)c2)cc1, the “hERG current change (%, negative = inhibition) at 10uM” value rises from 3.28% to 14.8%.

Compared with O=C1C(c2ccc(F)cc2)N(C2CCCCC2)C(=O)CN1C1CCCC1 (centres unmarked), O=C(CN(Cc1ccco1)C(=O)CNS(=O)(=O)c1ccc(Cl)cc1)NC1CCCCC1 is higher in “hERG current change (%, negative = inhibition) at 10uM” value: -34.1% for the first, -1.19% for the second.

Compared with COc1cccc(Nc2ncnc3c2cnn3C)c1, Cn1c(Cc2cccs2)nnc1SCc1nc2ccccc2[nH]1 is lower in “hERG current change (%, negative = inhibition) at 10uM” value: 9.2% for the first, 6.36% for the second.

First: CC(CN(C)Cc1ccccc1)OC(=O)C1COc2ccccc2O1.Cl (centres unmarked)
Second: O=C(Nc1ccc(Cl)cc1C(=O)Nc1ccccn1)c1ccco1
The “hERG current change (%, negative = inhibition) at 10uM” value of the first is higher: 17.4% for the first, -39.9% for the second.

First: CCOC(=O)c1nc(N2CCN(C(=O)OCC)CC2)c2c3c(sc2n1)CCCC3
Second: CCCS(=O)(=O)N1CCN(S(=O)(=O)c2ccccc2[N+](=O)[O-])CC1
The “hERG current change (%, negative = inhibition) at 10uM” value of the first is lower: -49.2% for the first, 1.43% for the second.

Compared with Cc1ccc([N+](=O)[O-])cc1NC(=S)NC(=O)CC(C)(C)C, [N-]=[N+]=CC(=O)c1ccnc(C(=O)C=[N+]=[N-])c1 is lower in “hERG current change (%, negative = inhibition) at 10uM” value: 9.57% for the first, -10.2% for the second.
